# Out of some 310,000 compounds screened, about 14,000 (4.5%) showed an effect of 50% or more. The effect is printed as a negative number. Some of the results follow.
# Molecular target: human ether-à-go-go-related gene (hERG) potassium channel (human, UniProt Q12809)
# Experiment: primary screen, population patch clamp on CHO cells stably expressing hERG
# 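Note: peak tail current of the secondary pulse compared with the same well before compound.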
# human ether-à-go-go-related gene (hERG) potassium channel, sequence (Q12809 whole entry, looked up): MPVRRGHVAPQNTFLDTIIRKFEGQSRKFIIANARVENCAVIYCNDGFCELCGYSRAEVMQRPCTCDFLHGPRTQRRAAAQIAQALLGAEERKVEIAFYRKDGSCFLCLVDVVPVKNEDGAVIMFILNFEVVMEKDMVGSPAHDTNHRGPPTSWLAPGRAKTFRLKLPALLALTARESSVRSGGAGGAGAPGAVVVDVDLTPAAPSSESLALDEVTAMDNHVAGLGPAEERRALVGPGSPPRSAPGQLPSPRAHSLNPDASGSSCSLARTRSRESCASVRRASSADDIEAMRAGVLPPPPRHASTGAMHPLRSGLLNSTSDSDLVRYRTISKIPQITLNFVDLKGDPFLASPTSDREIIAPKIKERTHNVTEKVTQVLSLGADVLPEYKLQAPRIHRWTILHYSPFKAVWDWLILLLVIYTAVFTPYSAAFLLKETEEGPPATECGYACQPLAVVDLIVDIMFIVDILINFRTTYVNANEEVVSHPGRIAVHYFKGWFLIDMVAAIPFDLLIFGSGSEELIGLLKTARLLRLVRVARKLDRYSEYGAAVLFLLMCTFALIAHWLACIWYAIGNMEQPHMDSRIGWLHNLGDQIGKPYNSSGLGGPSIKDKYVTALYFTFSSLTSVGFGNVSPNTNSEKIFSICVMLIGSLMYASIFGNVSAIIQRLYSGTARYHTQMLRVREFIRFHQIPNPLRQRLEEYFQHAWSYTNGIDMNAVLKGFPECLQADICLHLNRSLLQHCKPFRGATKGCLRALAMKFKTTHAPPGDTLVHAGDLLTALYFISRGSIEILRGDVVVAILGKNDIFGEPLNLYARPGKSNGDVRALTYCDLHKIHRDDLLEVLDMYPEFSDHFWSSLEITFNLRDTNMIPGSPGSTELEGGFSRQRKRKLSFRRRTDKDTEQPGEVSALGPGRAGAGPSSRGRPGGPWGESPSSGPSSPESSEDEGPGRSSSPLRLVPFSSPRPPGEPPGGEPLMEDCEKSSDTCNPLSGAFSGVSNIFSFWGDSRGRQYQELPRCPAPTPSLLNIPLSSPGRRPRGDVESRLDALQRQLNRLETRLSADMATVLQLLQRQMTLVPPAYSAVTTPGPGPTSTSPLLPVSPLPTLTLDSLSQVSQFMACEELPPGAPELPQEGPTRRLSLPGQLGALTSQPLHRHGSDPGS
row,SMILES,"hERG current change (%, negative = inhibition) at 10uM [%]"
1,COc1cc(/C=N/NC(=O)c2ccc(Cn3cc([N+](=O)[O-])cn3)o2)cc(Br)c1O,-77.5
2,CC1CCCCC1NC(=O)COC(=O)C12CC3CC(CC(Cl)(C3)C1)C2 (stereo not drawn),4.69
3,CNC(=O)CSCc1c(Cl)cccc1Cl,1.87
4,CCOC(=O)c1csc(NC(=O)CSc2nnnn2-c2ccc3c(c2)OCCO3)n1,17.8
5,Nc1nc(CN2CCN(c3ccccc3F)CC2)nc(Nc2ccccc2)n1,-57.1
6,Cc1c(CNCCCc2ccccc2)c(C(=O)O)c(C)n1Cc1ccccc1,4.03
7,CCOc1ccccc1CNC(=O)C1CCN(c2nc3ccccc3o2)CC1,-13.4
8,CC1CCc2c(nc3sc4c(c3c2N)CCCC4)C1 (stereo not drawn),-11.5
9,O=C(CSc1nnc(-c2ccccn2)n1Cc1ccco1)c1ccc(-c2ccccc2)cc1,4.82
10,CCc1ccccc1NC(=O)CSc1nnc([C@@H](NC(=O)OC(C)(C)C)C(C)CC)o1 (stereo partly drawn),-31.5
11,O=C1CN(C(=O)c2cccs2)c2ccccc2N1,-4.44
12,O=C1NC(c2ccc(Br)cc2)Oc2ccccc21 (stereo not drawn),7.33
13,CCC(Oc1ccccc1)C(=O)Nc1ccccc1N1CCCCC1 (stereo not drawn),5.6
14,COc1ccc(/C(N)=N/OC(=O)Oc2ccccc2)cc1OC,16.4
15,CC1CCC(NC(=O)c2cc(Cl)nc3ccccc23)CC1 (stereo not drawn),10.9
16,CC(C)c1ccc(CN2CC(C(=O)O)CC2=O)cc1 (stereo not drawn),15.7
17,COc1cccc(-c2cccc(NC(=O)C3CCN(Cc4cccc(C)n4)CC3)c2)c1,-80.1
18,COc1ccccc1C(=O)N1CCC(N2CCN(c3ccccc3)CC2)CC1,-8.58
19,O=C(Nc1ccnn1C1CCN(Cc2ccccc2)CC1)C1CCCC1,-36.7
20,CCOC(=O)C1CCN(Cc2cccc(Oc3ccccc3)c2)CC1,-21
21,COc1ccccc1N(C)S(=O)(=O)c1ccc(C(=O)N2CCCC(C(F)(F)F)C2)cc1 (stereo not drawn),-4.52
22,Cc1ccc(N2C(=O)NC(=O)C(CCc3ccccn3)(Cc3cccc(Cl)c3Cl)C2=O)cc1 (stereo not drawn),-18.6
23,Fc1ccc(CN2CCN(C(=S)NCCc3ccccc3)CC2)c(Cl)c1,29.2
24,COc1ccc(/C=N\NC(=O)c2ccccc2OC)cc1COc1ccccc1C,13.8
